Measured values taken from the supplement of paper PMC3334620.
Over roughly 33,000 sequences, “E-score (-0.5 to 0.5)” has its median near -0.013; the highest 2% begin near 0.3. The list shows a part of the results.

Molecular target: T1, Msn1 (UniProt P22148)
T1 sequence: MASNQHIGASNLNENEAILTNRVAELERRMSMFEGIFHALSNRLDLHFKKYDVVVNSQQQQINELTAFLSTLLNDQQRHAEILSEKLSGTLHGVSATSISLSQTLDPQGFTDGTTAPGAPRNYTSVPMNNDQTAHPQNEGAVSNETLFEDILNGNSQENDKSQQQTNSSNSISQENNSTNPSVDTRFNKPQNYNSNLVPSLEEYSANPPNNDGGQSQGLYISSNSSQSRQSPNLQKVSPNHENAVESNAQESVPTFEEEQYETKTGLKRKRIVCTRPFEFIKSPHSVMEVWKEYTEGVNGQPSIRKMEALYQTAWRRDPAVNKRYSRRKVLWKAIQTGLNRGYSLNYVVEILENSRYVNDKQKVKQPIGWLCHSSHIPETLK
Assay: PBM E-score (8-mer binding enrichment) (E-score (-0.5 to 0.5)); higher = stronger / more preferred TF binding; most listed sequences are background and not binding sites
Details: protein concentration: 200 nM; construct: GST-full length
Procedure, shortened: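 Bound GST-tagged yeast transcription factors, applied at about 100-200 nM to double-stranded universal all-10-mer Agilent arrays, were detected with fluorescent anti-GST. Scans were normalised with masliner. A modified Wilcoxon-Mann-Whitney statistic, the E-score, was assigned to each ungapped eight-base word pooled with its reverse complement by the Universal PBM Analysis Suite.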

Row | Sequence | PBM E-score
1 | CAGTTCGA | -0.0909
2 | AACCGTGC | -0.166
3 | ACATTCTA | 0.201
4 | CCAATAGA | -0.175
5 | CGATACCA | -0.0198
6 | GGGTATAA | 0.126
7 | CGGTAGCC | 0.0555
8 | CTGACTAA | 0.113
9 | AAAGTCTC | 0.0411
10 | GCAATTGC | 0.0743
11 | TGATTTAA | 0.155
12 | CCACGTGA | 0.0468
13 | ACAGCGAG | 0.0275
14 | CAACAAGC | 0.135
15 | ATATAGGC | 0.0845
16 | ACCGAAAA | 0.112
17 | GGGTGCTA | -0.126
18 | GGGGCTAA | -0.257
19 | AACCTTAA | -0.031
20 | GTCAGCCA | -0.13
21 | ACACTACC | -0.24
22 | AGTGCTAA | -0.0384
23 | TACCTCCA | -0.0136
24 | GCGCGGTA | 0.069
25 | AGGGATTG | -0.0776

Row | Sequence | PBM E-score
26 | CCTGTATA | -0.089
27 | ACATTAAA | 0.218
28 | CCTATTTC | 0.0612
29 | CGTACTCC | -0.00791
30 | GAGACGTA | 0.0797
31 | ACCCTATC | -0.0987
32 | TCTGAGCA | 0.0528
33 | ATTTGGAG | -0.0358
34 | CGACAGGA | 0.196
35 | AAGCTTAG | 0.157
36 | ACCGATCG | -0.008
37 | AGTCATAT | 0.113
38 | CATGCACA | 0.13
39 | GCGCATGA | -0.0716
40 | ATCGCACA | -0.00887
41 | ACCTACGT | -0.139
42 | CAACCCTG | -0.0827
43 | CTACGAAG | -0.235
44 | GGGACTTA | 0.23
45 | CAATGTTC | 0.133
46 | ATGCTCTG | -0.24
47 | AGCATCCG | -0.0919
48 | CCTCTCGA | -0.12
49 | ACGGCGCC | -0.0377
50 | GGATTGTA | -0.0803

Row | Sequence | PBM E-score
51 | AACGTGGG | -0.0795
52 | AATGACAG | 0.151
53 | GACTTGCC | -0.173
54 | ACAAGAGA | 0.205
55 | ATACATTC | 0.111
56 | CTAGGCAA | -0.0633
57 | CATCACGA | -0.0338
58 | CTCTGTCC | 0.34
59 | CGGGTGCA | -0.257
60 | GTAACTAA | 0.0429
61 | GACATCAC | 0.118
62 | CCCCTGCA | -0.351
63 | CAGTGGGC | -0.251
64 | CAATGGCC | -0.28
65 | AATGACTC | -0.0271
66 | CATTGGAG | -0.055
67 | CAAACGCA | -0.00666
68 | CGGTGCTA | 0.0186
69 | CATCTAAC | -0.115
70 | AGCCCGGA | -0.0374
71 | CATATTGA | 0.0877
72 | ACGGACCC | -0.221
73 | GCGAACCC | -0.126
74 | AGAAAACT | 0.116
75 | ACGTAAAT | 0.174

Row | Sequence | PBM E-score
76 | AGAGACAC | 0.177
77 | CTGGGTCC | -0.312
78 | CCATGTCC | 0.434
79 | GGCCGCAA | -0.213
80 | CGAACGTA | 0.0426
81 | AATGTCGT | 0.442
82 | AGCGCGTC | -0.00545
83 | ACACTAAA | 0.197
84 | GCAGCACC | -0.119
85 | CGTTAGAA | 0.00524
86 | ACTTCCTA | -0.0221
87 | AGACCGCT | -0.132
88 | CCACCTAA | -0.0895
89 | CTCAGAAG | -0.215
90 | CATAACAA | 0.121
91 | ACGGGTGG | -0.216
92 | ATGCTAAC | -0.106
93 | ACTCCGAC | 0.013
94 | CGCGCACA | 0.0796
95 | AGCTCTGG | -0.158
96 | AAAATTGC | 0.054
97 | ATGGTTCC | 0.149
98 | CAATGGTG | -0.151
99 | CAACTTGC | -0.0462
100 | GTGGGAGA | -0.317

Row | Sequence | PBM E-score
101 | CGACCGAG | 0.029
102 | CATCGAGA | 0.0038
103 | CCGTCGGC | -0.215
104 | GACGTACA | 0.192
105 | GTTTCAGA | 0.0535
106 | AGCGAGCC | -0.0771
107 | AGAGAGTC | 0.03
108 | ACCCAAGA | -0.0412
109 | CCAGTCAC | -0.231
110 | CTGCGGCA | -0.0777
111 | CGTTACCC | -0.233
112 | AACCGCCA | -0.0539
113 | TGATCAAA | -0.118
114 | ATAGTAAA | 0.151
115 | CAACCCGG | -0.228
116 | GAAATAGC | -0.0331
117 | AAGTGTGG | 0.00029
118 | ATCACACA | -0.0564
119 | CATCGACA | -0.0221
120 | ACCCCGAG | -0.0539
121 | CGGGAACG | -0.288
122 | AGGCCTGC | -0.0768
123 | AGTCCTCG | 0.0764
124 | GGAGCGGA | 0.0201
125 | ACACACTC | -0.0369

Row | Sequence | PBM E-score
126 | AACGCCTA | 0.04
127 | CATGAATA | 0.0114
128 | GACGCATA | 0.0771
129 | ACCATTGG | 0.143
130 | ACTCCCTC | -0.312
131 | ACTGACGG | -0.146
132 | AGCCTGAA | -0.0478
133 | ATGCTCGC | -0.204
134 | CTAACTAA | 0.0544
135 | AACTTGGC | -0.0461
136 | CCAGAGCG | -0.246
137 | ACGTCTAC | -0.0798
138 | AAATCCCC | -0.159
139 | CAGGCAAA | 0.207
140 | CCTGGACC | 0.0101
141 | ATCGGAAC | 0.0755
142 | ACCCCACG | -0.327
143 | GCGCTAAC | 0.00726
144 | GTGGGCAA | -0.12
145 | AAGTCGCC | -0.166
146 | AGAGATTC | -0.03
147 | GGCAACAA | 0.116
148 | AGATCTGG | -0.147
149 | AATTCCGA | 0.193
150 | CGCGATCC | 0.0291

Row | Sequence | PBM E-score
151 | GACAATGC | 0.258
152 | GAGATCCA | -0.143
153 | TAGTTATA | 0.172
154 | ACACGAAA | 0.0939
155 | ACGGTGCG | 0.103
156 | GTCAATTA | 0.166
157 | ACCGCCGA | 0.035
158 | CTTACAAA | 0.0725
159 | GTCACTGA | 0.0645
160 | CATCTTCG | -0.0412
161 | ACATGCCT | -0.119
162 | TATTGTCA | 0.282
163 | ATTCTGAG | -0.0225
164 | ATTTCACA | 0.14
165 | AAACAAGA | 0.0687
166 | AGGACTTC | 0.243
167 | GTGGAAAA | 0.00848
168 | GTGCGAAA | 0.0622
169 | AGACCACG | -0.202
170 | CAAAACCC | 0.116
171 | AGTAGCAA | 0.191
172 | CCAGCGTC | -0.344
